Source: PubChem BioAssay AID901 (National Center for Advancing Translational Sciences (NCATS), 2007)
Out of some 120,000 compounds screened, fewer than 10 were called active. The shares of active, inactive and inconclusive entries below differ from those in the screen. Calls follow the shape of the dose curve; as a rule, active = well fitted curve in the direction sought with a large enough effect in the signal ratio (not every such curve was filed as active); inconclusive = small, poorly fitted or top-dose-only effect, or a change in a side signal; inactive = no such curve, though single readings can be large or run the other way; the % refers to the signal ratio. Potencies of inconclusive entries are left out as doubtful fits.

molecular target: Inositol monophosphatase 1 (Rattus norvegicus) (UniProt P97697); experiment: qHTS Assay for Identifying the Cell-Membrane Permeable IMPase Inhibitors; conditions: CHO-M1 cells, HTRF TR-FRET ratio; Potency: IP1 accumulation unless noted; inhibition (IP1 accumulation): at 46.1 µM (top of the series) unless noted;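 also: cells stimulated with carbachol in lithium chloride buffer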;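 as to inhibition (IP1 accumulation): plate controls were DMSO basal wells for no effect and reference inhibitor wells for full effect; higher means more IMPase inhibition seen as more IP1 and lower FRET ratio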
Sequence of UniProt P97697 (P97697 whole entry, looked up): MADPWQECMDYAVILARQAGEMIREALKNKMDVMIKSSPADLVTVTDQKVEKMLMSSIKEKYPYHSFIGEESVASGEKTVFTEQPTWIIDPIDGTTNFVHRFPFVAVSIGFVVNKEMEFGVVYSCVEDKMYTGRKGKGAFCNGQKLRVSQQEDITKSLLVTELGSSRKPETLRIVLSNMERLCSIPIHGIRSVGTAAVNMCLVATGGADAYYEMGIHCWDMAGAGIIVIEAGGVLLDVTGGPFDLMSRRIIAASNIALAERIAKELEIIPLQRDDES

Question: For `Cc1ccc(CSc2ccc(-c3cccs3)nn2)cc1`, which Potency is on record?
Answer: inconclusive [falling, single point]

Question: How did the “inhibition (IP1 accumulation)” value turn out when `COc1ccc(-c2cc(C(=O)OCC(=O)Nc3ccc4c(c3)OCO4)c3ccccc3n2)cc1` was run?
Answer: inactive: -7.56%

Question: Which Potency does the source give for `Cc1ccccc1NC(=O)CSc1nc(N)c(C#N)c(-c2cccs2)c1C#N` here?
Answer: inconclusive [inhibitor, single point]

Question: How did the “inhibition (IP1 accumulation)” value turn out when `Cc1ccc(S(=O)(=O)NCc2ccncc2)cc1` was run?
Answer: inactive: -0.888%

Question: With `CCSc1nnc(NC(=O)Cc2ccccc2OC)s1` as the molecule, how does the Potency read?
Answer: inconclusive [falling, single point]

Question: With `COc1ccc(-c2nnc3sc(-c4ccccc4OC)nn23)cc1` as the molecule, how does the “inhibition (IP1 accumulation)” value read?
Answer: inactive: -7.39%

Question: `CN1CCC/C1=C/C=C1\SC(=S)NC1=O` was tested. Which Potency did it give?
Answer: inconclusive [rising, partial curve]

Question: With `CCOc1ccc(Cl)cc1S(=O)(=O)n1cnc2ccccc21` as the molecule, how does the “inhibition (IP1 accumulation)” value read?
Answer: inactive: -0.211%

Question: For `CC(=O)/C(=N/Nc1ccccc1)N1CCOCC1`, which “inhibition (IP1 accumulation)” value is on record?
Answer: inactive: 5.83%

Question: For `CCOc1ccc(NC(=O)NCCCN2CCN(c3ccc(OC)cc3)CC2)cc1`, which inhibition (IP1 accumulation) is on record?
Answer: inconclusive: -2.69% [phenotype inactive]

Question: For `Cc1ccc(-c2cc(C(=O)N(C)Cc3cnn(C)c3C)c3cc(Br)ccc3n2)cc1`, which Potency is on record?
Answer: inconclusive [falling, partial curve]

Question: Which “inhibition (IP1 accumulation)” value does the source give for `COc1cccc([C@H]2Nc3ccc(S(=O)(=O)Nc4cc(C)ccc4C)cc3[C@H]3C=CC[C@H]32)c1` here?
Answer: inactive: -1.33%

Question: With `COc1ccc(Cn2c(N)c(S(=O)(=O)c3cccs3)c3nc4ccccc4nc32)cc1` as the molecule, how does the Potency read?
Answer: inconclusive [falling, single point]

Question: With `C[C@@H](NC(=O)CN(c1ccccc1)S(=O)(=O)N(C)C)c1ccccc1` as the molecule, how does the inhibition (IP1 accumulation) read?
Answer: inconclusive: 3.99% [phenotype inactive]

Question: For `COc1ccc(CNC(=O)c2sc(=S)n(-c3ccc(OC)cc3)c2N)cc1`, which “inhibition (IP1 accumulation)” value is on record?
Answer: inactive: -5.59%

Question: With `CCOC(=O)c1ccc2ncc(C(=O)OCC)c(NCCc3ccc(OC)c(OC)c3)c2c1` as the molecule, how does the Potency read?
Answer: inconclusive [falling, single point]

Question: For `Cc1cccc(N(Cc2cc3ccccc3[nH]c2=O)C(=O)c2ccco2)c1C`, which “inhibition (IP1 accumulation)” value is on record?
Answer: inactive: -1.05%

Question: How did the inhibition (IP1 accumulation) turn out when `CCCOc1ccc(CNC(=O)Cn2c(=O)oc3ccccc32)cc1` was run?
Answer: inconclusive: -11.1% [phenotype inactive]

Question: How did the “inhibition (IP1 accumulation)” value turn out when `CCOC(=O)c1ccccc1NC(=S)N1CC(C)CC(C)C1` (centres undefined) was run?
Answer: inactive: -4.52%

Question: With `C/C=C/COC(=O)c1[nH]c2c(c1C)C(=O)CC(c1ccc(N(C)C)cc1)C2` (centres undefined) as the molecule, how does the “inhibition (IP1 accumulation)” value read?
Answer: inactive: 18%

Question: Which “inhibition (IP1 accumulation)” value does the source give for `CSC(=NC#N)N1CCN(c2ccccc2)CC1` here?
Answer: inactive: 1.51%

Question: For `N#CC1=C(N)SC(N)=C(C#N)C1c1ccoc1`, which Potency is on record?
Answer: inconclusive [inhibitor, partial curve]

Question: With `O=C(NCc1ccco1)c1csc2c1CCCCC2` as the molecule, how does the “inhibition (IP1 accumulation)” value read?
Answer: inactive: 1.62%

Question: `O=C(/C=C/c1ccco1)NC(=S)Nc1cc(-c2nc3ccccc3s2)ccc1Cl` was tested. Which Potency did it give?
Answer: inconclusive [falling, single point]

Question: With `Cc1ccc(NC(=O)NC2CCN(S(=O)(=O)c3ccc(F)cc3)CC2)cc1` as the molecule, how does the inhibition (IP1 accumulation) read?
Answer: inconclusive: 8.09% [phenotype inactive]

Question: `Nc1c(C(=O)Nc2ccc(C(F)(F)F)cc2)sc2nc(-c3cccs3)ccc12` was tested. Which Potency did it give?
Answer: inconclusive [inhibitor, single point]

Question: With `Cc1ccc2nc3sc(C(=O)N4CCOCC4)c(N)c3cc2c1` as the molecule, how does the inhibition (IP1 accumulation) read?
Answer: inconclusive: 16.3% [phenotype inactive]

Question: For `O=C(c1ccco1)n1nc(-c2ccco2)nc1SCc1ccccc1`, which “inhibition (IP1 accumulation)” value is on record?
Answer: inactive: 2.19%

Question: Which Potency does the source give for `CCOC(=O)CSc1nc(-c2ccccc2)nc2ccccc12` here?
Answer: inconclusive [inhibitor, single point]

Question: With `CC(C)(C)c1ccc(OCC(=O)NNC(=S)NC(=O)c2ccccc2[N+](=O)[O-])c(Br)c1` as the molecule, how does the inhibition (IP1 accumulation) read?
Answer: inconclusive: -1.62% [phenotype inactive]

Question: With `COc1ccccc1Cn1c(=O)c2ccccc2n2c(SCC(=O)N3CCCCC3)nnc12` as the molecule, how does the Potency read?
Answer: inconclusive [falling, single point]

Question: `Cc1ccccc1NC(=O)c1cccc2nc3ccccc3nc12` was tested. Which inhibition (IP1 accumulation) did it give?
Answer: inconclusive: -16.4% [phenotype inactive]

Question: How did the “inhibition (IP1 accumulation)” value turn out when `Cc1cc(C)n2nc(SCC3COc4ccccc4O3)nc2n1` (centres undefined) was run?
Answer: inactive: -4.9%

Question: How did the Potency turn out when `CC(C)Oc1ccc(C2C(C(=O)c3ccco3)=C(O)C(=O)N2Cc2cccnc2)cc1` (centres undefined) was run?
Answer: inconclusive [inhibitor, partial curve, poor fit]

Question: With `Cc1cccc(NC(=O)C2C3C=CC(C4CC34)C2C(=O)O)c1` (centres undefined) as the molecule, how does the “inhibition (IP1 accumulation)” value read?
Answer: inactive: 28.9%

Question: For `NS(=O)(=O)c1ccc(NC(=S)NCc2ccc(Cl)cc2)cc1`, which “inhibition (IP1 accumulation)” value is on record?
Answer: inactive: 6.68%

Question: `C/C(=N\NC(=O)C(C)Oc1ccc([N+](=O)[O-])cc1)c1ccccn1` (centres undefined) was tested. Which “inhibition (IP1 accumulation)” value did it give?
Answer: inactive: 1.82%

Question: With `Nc1ccc(-c2nc3ccc(-c4nc5ccc(N)cc5[nH]4)cc3[nH]2)cc1` as the molecule, how does the Potency read?
Answer: inconclusive [inhibitor, partial curve]

Question: How did the “inhibition (IP1 accumulation)” value turn out when `O=C(c1ccccc1)N1CCN(c2ncnc3sc4c(c23)CCC4)CC1` was run?
Answer: inactive: 10.1%

Question: With `Cc1c(C)c2cc(Cl)c(O)c(CN(C)C)c2oc1=O` as the molecule, how does the Potency read?
Answer: inconclusive [inhibitor, partial curve]

Question: With `Cc1ccc(C(C(=O)NC2CCCCC2)N(Cc2ccco2)C(=O)Cn2cnc3ccccc32)cc1` (centres undefined) as the molecule, how does the inhibition (IP1 accumulation) read?
Answer: inconclusive: 3.44% [phenotype inactive]

Question: With `O=C(c1cc(N2C(=O)C3C4CCC(C4)C3C2=O)ccc1Cl)N1CCN(c2ccc(F)cc2)CC1` (centres undefined) as the molecule, how does the “inhibition (IP1 accumulation)” value read?
Answer: inactive: 6.43%

Question: Which “inhibition (IP1 accumulation)” value does the source give for `C/C(=C1/C(=O)N(c2ccc([N+](=O)[O-])cc2)N=C1c1ccccc1)N(C)C` here?
Answer: inactive: 5.36%

Question: With `CN(C)c1ccc(N=Nc2ccccc2C(=O)OCC(=O)NC2CCCC2)cc1` as the molecule, how does the “inhibition (IP1 accumulation)” value read?
Answer: inactive: -0.695%

Question: Which “inhibition (IP1 accumulation)” value does the source give for `CN1CCN(CCCCOc2ccc(F)cc2)CC1` here?
Answer: inactive: -9%

Question: `CCOC(=O)c1cc(Br)c(=O)n2ccccc12` was tested. Which Potency did it give?
Answer: inconclusive [falling, single point]

Question: With `CCOC(=O)c1c(-c2ccc(C)o2)csc1NC(=O)COC(=O)c1ccc(NC(N)=O)cc1` as the molecule, how does the Potency read?
Answer: inconclusive [falling, single point]

Question: Which “inhibition (IP1 accumulation)” value does the source give for `COc1ccc(C2SCCN2C(=S)Nc2cccc(C(F)(F)F)c2)cc1` (centres undefined) here?
Answer: inactive: 8.76%

Question: For `COc1cccc(-c2ccc3c(N)c(C(=O)NCc4ccc(Cl)cc4)sc3n2)c1`, which Potency is on record?
Answer: inconclusive [inhibitor, single point]

Question: `Cc1cc(NC(=O)CSc2nnnn2Cc2ccccc2)no1` was tested. Which inhibition (IP1 accumulation) did it give?
Answer: inconclusive: 18.9% [phenotype inactive]

Question: Which inhibition (IP1 accumulation) does the source give for `O=C(CCCn1ncn2c(cc3occc32)c1=O)N1CCc2ccccc2C1` here?
Answer: inconclusive: 23% [phenotype inactive]

Question: With `CCOC(=O)/C(C#N)=C/c1ccc(-c2ccc(Br)cc2)o1` as the molecule, how does the Potency read?
Answer: inconclusive [inhibitor, full curve]

Question: For `O=C(CNC(=O)c1ccco1)OCc1ccc(Cl)cc1`, which Potency is on record?
Answer: inconclusive [inhibitor, single point]

Question: How did the Potency turn out when `S=C1NCCc2ccccc2C1c1ccccc1` (centres undefined) was run?
Answer: inconclusive [inhibitor, partial curve]

Question: `Cc1nc(SC2CCOC2=O)c2c(C)c(C)sc2n1` (centres undefined) was tested. Which Potency did it give?
Answer: inconclusive [falling, partial curve]

Question: `COc1cccc(OC)c1C(=O)N1CCN(Cc2ccncc2)CC1` was tested. Which inhibition (IP1 accumulation) did it give?
Answer: inactive: -9.26% [at 1.84 µM]

Question: With `Cc1ccc2nc(N(CCCN(C)C)C(=O)c3sc4ccccc4c3Cl)sc2c1` as the molecule, how does the Potency read?
Answer: inconclusive [inhibitor, partial curve]

Question: `COc1cccc(-n2nnnc2SCC(=O)Nc2ccc(C(C)=O)cc2)c1` was tested. Which Potency did it give?
Answer: inconclusive [inhibitor, single point]

Question: With `S=C(NCc1ccco1)Nc1cccc(Cl)c1` as the molecule, how does the “inhibition (IP1 accumulation)” value read?
Answer: inactive: 5.77%

Question: Which Potency does the source give for `Cc1ccccc1C(c1c(C)n(C)n(-c2ccccc2)c1=O)c1c(C)n(C)n(-c2ccccc2)c1=O` here?
Answer: inconclusive [rising, single point]

Question: Which Potency does the source give for `COC(=O)Cc1cc(=O)oc2c(C)c(O)ccc12` here?
Answer: inconclusive [inhibitor, single point]

Question: For `COc1ccc(/C(O)=C2/C(=O)C(=O)N(CC3CCCO3)C2c2ccc(OC)c(OC)c2)cc1` (centres undefined), which Potency is on record?
Answer: inconclusive [inhibitor, single point]

Question: For `CC(Oc1ccc(Cl)cc1Cl)c1nc(-c2ccc(NC(=O)c3ccccn3)cc2)no1` (centres undefined), which Potency is on record?
Answer: inconclusive [inhibitor, single point]

Question: How did the Potency turn out when `O=c1oc2c(CN3CCOCC3)c(O)c(Cl)cc2c2c1CCCC2` was run?
Answer: inconclusive [inhibitor, single point]

Question: `COCCn1c(SCC(=O)Nc2ccc(Cl)c(S(=O)(=O)N(C)C)c2)nc2ccccc21` was tested. Which “inhibition (IP1 accumulation)” value did it give?
Answer: inactive: 1.52%

Question: How did the “inhibition (IP1 accumulation)” value turn out when `O=C(NC(=S)Nc1ccc(S(=O)(=O)N2CCCCC2)cc1)c1ccc(Cl)cc1` was run?
Answer: inactive: 7.23%

Question: Which “inhibition (IP1 accumulation)” value does the source give for `COc1cc(-c2ccc(N=Nc3ccc4c(S(=O)(=O)O)cc(S(=O)(=O)O)c(N)c4c3O)c(OC)c2)ccc1N=Nc1ccc2c(S(=O)(=O)O)cc(S(=O)(=O)O)c(N)c2c1O` here?
Answer: inactive: 21% [at 20.6 µM]

Question: Which inhibition (IP1 accumulation) does the source give for `S=C(Nc1ccc(OCc2ccccc2)cc1)Nc1cccc(Cl)c1Cl` here?
Answer: inconclusive: -15.7% [phenotype inactive]

Question: How did the Potency turn out when `FCCCOc1ccc(-c2nccc(-c3ccc(Br)cc3)n2)cc1` was run?
Answer: inconclusive [inhibitor, single point]

Question: `CC1CCN(C(=O)/C(=C/c2ccccc2Cl)c2ccccc2)CC1` was tested. Which “inhibition (IP1 accumulation)” value did it give?
Answer: inactive: -7.09%

Question: For `CCOc1ccc(OCC)c(NC(=O)CN2CCN(c3cccc(C)c3C)CC2)c1`, which inhibition (IP1 accumulation) is on record?
Answer: inconclusive: 28.6% [phenotype inactive]

Question: With `Cc1nc(CSc2nnc3scc(-c4ccccc4)n23)cs1` as the molecule, how does the inhibition (IP1 accumulation) read?
Answer: inconclusive: 4.32% [phenotype inactive]

Question: How did the Potency turn out when `Cc1nn(C)cc1CN(C)C(=O)c1cc(-c2ccccc2)nc2ccc(Br)cc12` was run?
Answer: inconclusive [inhibitor, partial curve]

Question: How did the “inhibition (IP1 accumulation)” value turn out when `CC(NC(=O)C1CCCN(S(=O)(=O)c2cccs2)C1)c1ccccc1` (centres undefined) was run?
Answer: inactive: -1.28%
